From the antibiotic and cytotoxicity screens of Wong et al. (2023)
This is one part of the list.

What follows are compounds tested on S. aureus RN4220 (assay: growth inhibition call (relative growth <= 0.2)). Settings: 50 µM.

Growth inhibition call, inactive:
Cc1noc(C)c1NC(=O)N(C)C[C@H]1Oc2c(NC(=O)Nc3cccc4ccccc34)cccc2C(=O)N([C@H](C)CO)C[C@@H]1C
C[C@H](CO)N1C[C@H](C)[C@@H](CN(C)Cc2ccncc2)Oc2c(NC(=O)c3ccncc3)cccc2C1=O
Cc1noc(C)c1S(=O)(=O)N(C)C[C@H]1Oc2ccc(NC(=O)Cn3cnnn3)cc2CC(=O)N([C@@H](C)CO)C[C@H]1C
C[C@@H]1CCCCO[C@@H](CN(C)S(=O)(=O)c2cccs2)[C@@H](C)CN([C@@H](C)CO)C(=O)c2cc(NS(C)(=O)=O)ccc2O1
C[C@@H]1CN([C@@H](C)CO)C(=O)c2cc(NS(=O)(=O)c3cccs3)ccc2O[C@@H](C)CCCCO[C@@H]1CN(C)Cc1ccc(C(F)(F)F)cc1
COc1ccc(CN(C)C[C@@H]2OCCCC[C@@H](C)Oc3ccc(NC(=O)C4CCCCC4)cc3C(=O)N([C@H](C)CO)C[C@@H]2C)cc1
CC(C)NC(=O)Nc1ccc2c(c1)C(=O)N([C@@H](C)CO)C[C@H](C)[C@H](CN(C)Cc1ccc3c(c1)OCO3)O2
CC(C)C[C@@H]1NC(=O)[C@H]2C[C@@H](C(=O)NCCCCCCNC(=O)CS)[C@@H](c3ccc(O)cc3)N2C1=O
C[C@@H]1CN([C@@H](C)CO)C(=O)c2cccc(NC(=O)Nc3ccc(F)cc3)c2O[C@H]1CN(C)Cc1ccc(C(F)(F)F)cc1
O=C(C[C@@H]1C=C[C@@H](NC(=O)CN2CCOCC2)[C@@H](CO)O1)NC1CCC1
COc1ccc(NC(=O)Nc2ccc3c(c2)C(=O)N([C@@H](C)CO)C[C@H](C)[C@H](CN(C)C(=O)Cc2ccccc2)OCCCC[C@@H](C)O3)cc1
C[C@H]1CN([C@@H](C)CO)C(=O)Cc2cc(NC(=O)c3ccncc3)ccc2O[C@H]1CN(C)S(=O)(=O)c1ccc(Cl)cc1
C[C@@H]1CCCCO[C@@H](CN(C)S(C)(=O)=O)[C@@H](C)CN([C@@H](C)CO)C(=O)c2cc(NS(C)(=O)=O)ccc2O1
CC1(C)OC2CC3C4CC(F)C5=CC(=O)C=CC5(C)C4(F)C(O)CC3(C)C2(C(=O)CO)O1 (stereo not given)
COc1ccc(NC(=O)Nc2ccc3c(c2)CC(=O)N([C@@H](C)CO)C[C@H](C)[C@@H](CN(C)Cc2ccc(Oc4ccccc4)cc2)O3)cc1
C(=N\c1ccccc1)/c1ccc(Oc2ccccc2)cc1
Cc1ccc(S(=O)(=O)Nc2ccc3c(c2)C(=O)N([C@@H](C)CO)C[C@H](C)[C@H](CN(C)Cc2ccncc2)OCCCC[C@H](C)O3)cc1
C[C@@H]1CCCCO[C@@H](CN(C)C(=O)NC2CCCCC2)[C@H](C)CN([C@@H](C)CO)C(=O)c2cc(NC(=O)Nc3ccc4c(c3)OCO4)ccc2O1
CC(=O)OCCNC(=O)c1cccnc1
CCCNC(=O)Nc1ccc2c(c1)C(=O)N(C)C[C@H](OC)[C@H](C)CN(Cc1ccc(-c3ccccn3)cc1)[C@H](C)CO2
Nn1nnc2ccccc21
Cc1ccc(S(=O)(=O)Nc2ccc3c(c2)C(=O)N([C@@H](C)CO)C[C@@H](C)[C@@H](CN(C)S(C)(=O)=O)O3)cc1
C[C@@H]1CN([C@H](C)CO)C(=O)c2cc(NC(=O)Nc3ccc(C(F)(F)F)cc3)ccc2O[C@@H](C)CCCCO[C@@H]1CN(C)S(=O)(=O)c1ccc(F)cc1
C[C@@H]1CCCCO[C@@H](CN(C)C(=O)C2CCCCC2)[C@@H](C)CN([C@@H](C)CO)C(=O)c2cc(NS(=O)(=O)c3ccc(F)cc3)ccc2O1
COc1ccccc1O
C[C@H]1CCCCO[C@@H](CN(C)C(=O)Nc2ccc(C(F)(F)F)cc2)[C@@H](C)CN([C@@H](C)CO)C(=O)c2cc(NC(=O)Nc3ccc(F)cc3)ccc2O1
COCCC(=O)NS(=O)(=O)c1ccccc1
COc1ccc([C@@H]2CC(=O)c3c(O)cc(O[C@@H]4O[C@H](CO)[C@@H](O)[C@H](O)[C@H]4O[C@@H]4O[C@@H](C)[C@H](O)[C@@H](O)[C@H]4O)cc3O2)cc1O
C[C@H](N[C@@H](CCc1ccccc1)C(=O)O)C(=O)N1CCC[C@H]1C(=O)O
C[C@@H]1CCCCO[C@@H](CN(C)Cc2ccccc2)[C@H](C)CN([C@@H](C)CO)C(=O)c2cc(NC(=O)Nc3ccc(C(F)(F)F)cc3)ccc2O1
